Measurements published in PubChem BioAssay (NCATS).
Where “and” joins values, the source holds several entries; their conditions need not be identical. Identical values can stand only once. Inconclusive results, whose numbers are uncertain, are shown with a selection of clear calls. Where the call is inconclusive, the potency comes from a doubtful curve fit. Calls of active or inactive are those of the source. The call rests on the fitted dose curve; in most records, active means well fitted cell-killing curve with a large enough effect; inconclusive means small, poorly fitted or top-dose-only effect, or effect the other way; inactive means flat fitted curve, though single readings scatter.

How the values were obtained:
Experiment in all cases: Primary qHTS to identify gynecologic anti-cancer compounds using libraries of approved drugs and bioactive compounds (AID 1345084); further: nearly all actives have a fitted effect of over 55% in size
[1] = tested on: Hek293T; conditions: Gynecologic cancer cell panel viability, ATPlite luminescence, 48 h, control line for the selectivity index; series mostly up to 57.5 µM
In short: (§1)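 In this quantitative HTS, cell killing is estimated from loss of ATP-dependent luciferase light. Cells see five compound concentrations over a 48 h exposure.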

[2] = tested on: JEG-3; conditions: Gynecologic cancer cell panel viability, ATPlite luminescence, 48 h; series mostly up to 57.5 µM
In short: as §1

[3] = tested on: OV90; conditions: Gynecologic cancer cell panel viability, ATPlite luminescence, 48 h; series mostly up to 57.5 µM
In short: as §1

[4] = tested on: PA-1; conditions: Gynecologic cancer cell panel viability, ATPlite luminescence, 48 h; series mostly up to 57.5 µM
In short: as §1

[5] = tested on: SKOV3; conditions: Gynecologic cancer cell panel viability, ATPlite luminescence, 48 h; series mostly up to 57.5 µM
In short: as §1

[6] = tested on: Tov-21-G; conditions: Gynecologic cancer cell panel viability, ATPlite luminescence, 48 h; series mostly up to 57.5 µM
In short: as §1

[7] = tested on: Tov112D; conditions: Gynecologic cancer cell panel viability, ATPlite luminescence, 48 h; series mostly up to 57.5 µM
In short: as §1
Potency means the concentration at half of the fitted maximal effect; tags describe the fitted curve by direction and shape.

Nc1ccc(C(=O)Nc2cccc(-c3nc(N4CCOCC4)c4oc5ncccc5c4n3)c2)cn1
Potency [1]: inconclusive: 28.2 µM [cytotoxic, single point]
Potency [2]: inconclusive: 39.8 µM [cytotoxic, single point]
Potency [3]: inconclusive: 17.8 µM [cytotoxic, partial curve, poor fit]
Potency [4]: active: 3.16 µM
Potency [5]: active: 15.8 µM
Potency [6]: inconclusive: 28.2 µM [cytotoxic, single point]
Potency [7]: inconclusive: 39.8 µM [cytotoxic, single point]

COc1ccc(S(=O)(=O)Nc2cccnc2Nc2ccc(O)cc2)cc1
Potency [1]: inconclusive: 1.78 µM [cytotoxic, full curve]
Potency [2]: active: 2 µM
Potency [3]: inconclusive: 4.47 µM [cytotoxic, full curve]
Potency [4]: active: 1 µM
Potency [5]: active: 6.31 µM
Potency [6]: inconclusive: 1.41 µM [cytotoxic, full curve]
Potency [7]: active: 1.78 µM

CCCCCCCCNC(C)C(O)c1ccc(SC(C)C)cc1 (stereo not given)
Potency [1]: inconclusive: 28.2 µM [cytotoxic, single point]
Potency [2]: inconclusive: 39.8 µM [cytotoxic, single point]
Potency [3]: inconclusive: 25.1 µM [cytotoxic, single point]
Potency [4]: inconclusive: 31.6 µM [cytotoxic, single point]
Potency [5]: inconclusive: 39.8 µM [cytotoxic, single point]
Potency [6]: inconclusive: 28.2 µM [cytotoxic, partial curve, poor fit]

CC(=O)[C@]1(O)Cc2c(O)c3c(c(O)c2[C@@H](O[C@H]2C[C@H](N)[C@H](O)[C@H](C)O2)C1)C(=O)c1ccccc1C3=O
Potency [1]: active: 0.708 µM
Potency [2]: inconclusive: 0.708 µM [cytotoxic, full curve, poor fit]
Potency [3]: active: 3.16 µM
Potency [4]: active: 0.282 µM
Potency [5]: active: 1.78 µM

COc1cccc2c1C(=O)c1c(O)c3c(c(O)c1C2=O)C[C@@](O)(C(C)=O)C[C@@H]3O[C@H]1C[C@H](N)[C@H](O)[C@H](C)O1
Potency [1]: inconclusive: 0.355 µM [cytotoxic, full curve]
Potency [2]: inconclusive: 0.562 µM [cytotoxic, full curve, poor fit]
Potency [3]: active: 1.26 µM
Potency [4]: inconclusive: 1.12 µM
Potency [5]: inconclusive: 0.447 µM [cytotoxic, full curve, poor fit]
Potency [6]: inconclusive: 0.794 µM [cytotoxic, full curve, poor fit]
Potency [7]: active: 0.398 µM

NC(N)=NN=C(/C=C/c1ccc([N+](=O)[O-])o1)/C=C/c1ccc([N+](=O)[O-])o1
Potency [1]: inconclusive: 31.6 µM [cytotoxic, single point]
Potency [2]: inconclusive: 20 µM [cytotoxic, partial curve, poor fit]
Potency [3]: active: 15.8 µM
Potency [4]: active: 7.08 µM
Potency [5]: inconclusive: 28.2 µM [cytotoxic, partial curve, poor fit]

CCCCCCC[N+](CC)(CC)CCCCc1ccc(Cl)cc1
Potency [1]: inconclusive: 17.8 µM [cytotoxic, partial curve, poor fit]
Potency [2]: inconclusive: 31.6 µM [cytotoxic, partial curve]
Potency [3]: active: 10 µM
Potency [5]: inconclusive: 39.8 µM [cytotoxic, single point]
Potency [6]: active: 20 µM
Potency [7]: inconclusive: 15.8 µM [cytotoxic, partial curve]

CN(C)c1ccc(C(=C2C=CC(=[N+](C)C)C=C2)c2ccc(N(C)C)cc2)cc1
Potency [1]: inconclusive: 3.16 µM [cytotoxic, partial curve, poor fit]
Potency [2]: active: 14.1 µM
Potency [3]: inconclusive: 3.98 µM [cytotoxic, partial curve, poor fit]
Potency [5]: active: 0.316 µM
Potency [6]: active: 1.78 µM

NC(=NCCCCCCN=C(N)/N=C(\N)Nc1ccc(Cl)cc1)/N=C(\N)Nc1ccc(Cl)cc1
Potency [1]: inconclusive: 25.1 µM [cytotoxic, single point] and inconclusive: 39.8 µM [cytotoxic, single point]
Potency [2]: inconclusive: 31.6 µM [cytotoxic, single point]
Potency [3]: inconclusive: 22.4 µM [cytotoxic, single point] and inconclusive: 28.2 µM [cytotoxic, single point]
Potency [4]: inconclusive: 39.8 µM [cytotoxic, single point]
Potency [5]: inconclusive: 35.5 µM [cytotoxic, single point] and inconclusive: 15.8 µM [cytotoxic, single point]
Potency [6]: inconclusive: 28.2 µM [cytotoxic, single point]
Potency [7]: inconclusive: 35.5 µM [cytotoxic, single point]
